The list shows a part of the results. Repeats are few or missing, and single values can be far off.
tested on: Bacillus subtilis 168 spores; assay: spore germination/outgrowth inhibition class (0 mild or none, 1 inhibitory, 3 highly inhibitory, 4 no outgrowth, 5 no germination) (ordinal class code); higher = stronger inhibition of spore germination/outgrowth; details: 100 µg/ml; pH 7.4; 8 h
Method: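 Heat-activated Bacillus subtilis 168 spores (OD595 0.2) in TSB with AGFK germinants, buffered with 80 mM MOPS at pH 7.4, were exposed to 100 µg/ml compound (Pyxis Discovery library, catalogue IDs). OD595 was followed for 8 h at 37 °C in a plate reader. Each compound was assigned an ordinal inhibition class: 0 mild/no inhibition (reached 2x initial OD within 2-3 h), 1 inhibitory (3-6 h), 3 highly inhibitory (6-8 h), 4 no outgrowth within 8 h, 5 no germination (no OD decline).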

| SMILES | spore germination/outgrowth inhibition class |
| --- | --- |
| O=C1C(=O)c2ccccc2-c2ccccc21 | active: 3 |
| COc1cc(N)ccc1-c1ccc(N)cc1OC | inactive: 0 |

Reference: the supplement of paper PMC6002552
